Assay results: US20240317865A1, “ANTIBODIES AGAINST INTEGRIN ALPHA 11 BETA 1” (MOMENTA PHARMACEUTICALS, INC., priority 2020, published 2024)

Columns and labels:
[1] = target: T1, adhesion of CHO-K1 cells expressing human α11 to rat tail type I collagen (Homo sapiens, UniProt Q9UKX5); assay: Cell adhesion inhibition (CHO-K1 hu α11 cells to type I collagen, xCelligence); format: cell-based; settings: in words
T1 construct: expressed in transfected cells; host or cells: CHO-K1
T1 sequence (Q9UKX5 23-1188): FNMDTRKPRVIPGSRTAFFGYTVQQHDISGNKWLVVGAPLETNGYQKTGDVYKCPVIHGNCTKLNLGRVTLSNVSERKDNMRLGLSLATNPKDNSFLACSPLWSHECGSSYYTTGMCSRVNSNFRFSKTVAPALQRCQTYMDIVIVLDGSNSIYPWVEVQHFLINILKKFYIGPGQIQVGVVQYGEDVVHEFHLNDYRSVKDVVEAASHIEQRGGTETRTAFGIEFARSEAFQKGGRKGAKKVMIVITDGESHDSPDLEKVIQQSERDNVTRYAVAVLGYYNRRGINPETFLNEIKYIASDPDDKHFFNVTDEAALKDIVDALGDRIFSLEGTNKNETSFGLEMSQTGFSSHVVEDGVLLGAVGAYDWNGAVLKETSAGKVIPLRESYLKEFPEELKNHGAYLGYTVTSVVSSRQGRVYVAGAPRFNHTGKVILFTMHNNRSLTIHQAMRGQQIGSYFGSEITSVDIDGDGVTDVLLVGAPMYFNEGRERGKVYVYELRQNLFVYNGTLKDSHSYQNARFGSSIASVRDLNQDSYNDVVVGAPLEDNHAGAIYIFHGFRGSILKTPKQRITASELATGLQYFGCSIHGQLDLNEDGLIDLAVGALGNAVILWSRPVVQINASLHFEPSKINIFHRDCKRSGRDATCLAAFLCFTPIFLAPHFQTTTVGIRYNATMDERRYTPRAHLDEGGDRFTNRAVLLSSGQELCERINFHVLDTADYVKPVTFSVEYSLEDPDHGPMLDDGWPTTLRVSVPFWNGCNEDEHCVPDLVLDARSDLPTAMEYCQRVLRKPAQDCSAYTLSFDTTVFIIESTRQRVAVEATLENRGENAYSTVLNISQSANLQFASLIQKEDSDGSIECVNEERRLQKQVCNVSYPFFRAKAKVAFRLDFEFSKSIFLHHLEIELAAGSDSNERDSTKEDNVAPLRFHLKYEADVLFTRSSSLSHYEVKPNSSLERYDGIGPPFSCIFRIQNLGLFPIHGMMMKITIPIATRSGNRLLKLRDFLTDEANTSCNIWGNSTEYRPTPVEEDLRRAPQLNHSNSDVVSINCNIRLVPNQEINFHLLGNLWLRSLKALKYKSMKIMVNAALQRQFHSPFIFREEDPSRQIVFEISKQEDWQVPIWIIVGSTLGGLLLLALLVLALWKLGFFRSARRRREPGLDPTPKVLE
Protocol: 0.6×10^6 cells/mL were incubated with each antibody at a range of concentrations for 20 minutes at 37° C. E-Plate VIEW 96 PET plate coated with 100 ng/ml type I collagen or PBS overnight at room temperature was blocked in 3% BSA for 1 house at room temperature. After washing the plate with PBS, cell and antibody mixture was added to the wells and the plate was places into an xCelligence machine. Cell adhesion was recorded over 6 hours. The time point of maximum cell adhesion was used for comparison relative to control.
A CHO-K1 hu α11 cell line was used to assess the ability of mAbs to block α11β1-mediated binding to type I collagen. […] In the “Untreated” condition, cells were plated on type I collagen but no antibody was added and in the “Uncoated” condition, cells were seeded onto BSA-coated wells containing no type I collagen. Statistics were performed using one-way ANOVA followed by Dunnett's multiple comparisons test. […] Therefore, it is possible that these mAbs bind on an α11β1 domain that keeps the integrin in a low or intermediate affinity state. […] Nine human mAbs were also tested for their ability to inhibit the binding of human CHO-α11 cells to type I collagen.

α11β1 I Domain = target: T2, α11β1 I Domain (Homo sapiens, UniProt Q9UKX5); assay: ELISA binding to in-house generated α11β1 I domain; set-up: An in-house generated I domain of α11β1 was used; made in house; settings: in words
T2 sequence (Q9UKX5 164-345 limits assumed): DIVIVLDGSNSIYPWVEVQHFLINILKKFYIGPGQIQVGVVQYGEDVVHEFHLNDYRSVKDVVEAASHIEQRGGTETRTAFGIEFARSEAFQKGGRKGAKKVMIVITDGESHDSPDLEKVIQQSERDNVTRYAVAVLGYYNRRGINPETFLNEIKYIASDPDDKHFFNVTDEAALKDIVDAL
Protocol: 0.25 μg/mL of target antigen (recombinant human or mouse α11β1) was plated in a 96-well plate over night at 4° C. Plates were washed (PBS with 0.1% Tween-20), blocked (PBS with 2% BSA and 0.05% Tween-20) for 1 hour at room temperature and incubated with a range of antibody concentrations for 1 hour at room temperature. Subsequently, plates were washed and incubated with biotinylated anti-rabbit/mouse/human IgG in a 1:1000 dilution buffer and incubated for 1 hour at room temperature. After washing the plates, Streptavidin HRP was added at 1:200 in dilution buffer and incubated for 1 hour at room temperature. Ultra TMB ELISA substrate solution was added and the plates incubated for 5 minutes on a plate shaker. The reaction was stopped by adding stop solution to each well and plates were read at 450 nm.
Data was also collected to determine whether antibodies of interest bind to the I domain of α11β1. An in-house generated I domain of α11β1 was used. […] Mouse antibodies 10-F23, 10-L15, 7-O8, 6-A12, 9-G05 and 9-E16 and rabbit antibodies 7-H12 and 2-D3 were also tested for binding against the in-house generated α11β1 I domain. FIGS. 3A and 3B show graphs illustrating binding data from exemplary mAbs.

Inhibition of cell adhesion to type I collagen [1]: decrease cell adhesion to collagen
Binding to the I domain of α11β1 (α11β1 I Domain): not found to bind the I-domain
B1: 8-G15: mouse anti-α11β1 mAb; VH SEQ ID NO: 107, VL SEQ ID NO: 108 (antibody, V domains shown)
VH: EVQLQQSGPELVKPGASVRISCKASGYTFTDYYIHWVKQKPGQGLECIGEIYPGTDNTYYSKKFRGKATLTADKSSDTAYMQLSSLTSEDSAVYFCARGDYYRGYFDVWGAGTTVTVSS
VL: DVVMTQTSLTLSVTIGQPASISCKSSQSLLHSNGKTYLNWLLQRPGQSPKFLIYLVSKLESGVPDRFSGSGSGTDFTLKISRVEAEDLGVYYCLQSTHFPWTFGGGTKLEIK
